The text below walks through data of patent US20240158515A1, “ANTI-FGFR3 ANTIBODIES AND ANTIGEN-BINDING FRAGMENTS AND METHODS OF USE THEREOF” (Regeneron Pharmaceuticals, Inc., priority 2022, published 2024).

The target of assay [1] is T1, human FGFR3b (hFGFR3b.mmH, REGN3152) (Homo sapiens, UniProt P22607).
T1 construct: REGN3152 (human FGFR3b expressed with a C-terminal myc-myc-hexahistidine tag)
Briefly: Biacore SPR binding kinetics, monomeric human FGFR3b to captured antibodies. Conditions: 25° C. The method, then:
(§1) Biacore binding kinetics of anti-FGFR3 antibodies, in an antibody capture format, to monomeric human FGFR3b, cynomolgus FGFR3b, murine FGFR3b, human FGFR3c, and dimeric human FGFR3b ecto domain recombinant proteins at 25° C. were analyzed.
(§2) Equilibrium dissociation constants (KD values) for human FGFR3b expressed with a C-terminal myc-myc-hexahistidine tag (hFGFR3b.mmH, REGN3152) or cynomolgus FGFR3b expressed with a C-terminal myc-myc-hexahistidine tag (mfFGFR3b.mmH, REGN3521), or murine FGFR3b expressed with a C-terminal myc-myc-hexahistidine tag (mFGFR3b.mmH, REGN3215) or human FGFR3c expressed with a C-terminal myc-myc-hexahistidine tag (hFGFR3c.mmH, REGN3155) or human FGFR3b expressed with an C-terminal murine Fc tag (hFGFR3b.mFc, REGN3153) binding to purified anti-FGFR3 antibodies were determined using a real-time surface plasmon resonance biosensor technology using a Biacore 3000 or Biacore 4000 instrument. The CM5 Biacore sensor surface was derivatized by amine coupling with a monoclonal mouse anti-human Fc monoclonal antibody (REGN2567). All Biacore binding studies were performed in a buffer composed of 0.01M HEPES pH 7.4, 0.15 M NaCl, 3 mM EDTA, 0.05% v/v Surfactant P20 (HBS-EP running buffer). Different concentrations of monomeric proteins prepared in HBS-EP running buffer (ranging from 90 nM to 3.33 nM in 3-fold serial dilutions) or dimeric protein (hFGFR3b.mFc, REGN3153) prepared in HBS-EP running buffer (ranging from 30 to 10 nM in 3-fold serial dilution) were injected over the captured anti-FGFR3 antibodies at a flow rate of 30 μL/minute. Antibody-reagent association was monitored for 5 minutes while dissociation in HBS-EP running buffer was monitored for 10 minutes. At the end of each cycle, the anti-FGFR3 antibody capture surface was regenerated using a 10 sec injection of 20 mM phosphoric acid. All binding kinetics experiments were performed at 25° C.
(§3) The specific SPR-Biacore sensorgrams were obtained by a double referencing procedure. The double referencing was performed by first subtracting the signal of each injection over a reference surface (anti-hFc) from the signal over the experimental surface (anti-hFc-captured anti-FGFR3 antibodies) thereby removing contributions from refractive index changes. In addition, running buffer injections were performed to allow subtraction of the signal changes resulting from the dissociation of captured antibodies from the coupled anti-hFc surface. Kinetic association (ka) and dissociation (kd) rate constants were determined by fitting the real-time sensorgrams to a 1:1 binding model using Scrubber v2.0c curve fitting software. Binding dissociation equilibrium constants (KD) and dissociative half-lives (t½) were calculated from the kinetic rate constants as: […]
In general terms: SPR reads the build-up and loss of mass on a sensor chip optically.

Assay [2] relates to CD73 protein level in UMUC14 xenograft tumors. Briefly: CD73 expression in UMUC14 tumors in vivo, Western blot. Also noted: species or system SCID mice. Conditions: xenograft mice, FIG. 7 and 8. Here is the method:
To test the effect of anti-FGFR3 inhibitory antibody or tyrosine kinase inhibitor (AZD4547) on CD73 expression in vivo, tumor cells (5×10^6 UMUC14, 3×10^6 Fadu EV or S249C, in 50% Matrigel) were implanted subcutaneously into the right flank of 6 to 8-week-old female SCID mice (Jackson Laboratory). Once tumors were established (˜200 mm^3 in volume), mice were randomized into treatment groups (n=5-6 mice per group) and injected intraperitoneally once with anti-FGFR3 antibodies (15 mg/kg) or isotype control. Tyrosine kinase inhibitor AZD4547 (25 mg/kg) was administered once daily by oral gavage for 3 days. Tumors were collected 4 days post treatment initiation. Tumors were collected, snap frozen and lysed in RIPA buffer. Equal amount of tumor lysates were analyzed by SDS-PAGE and blotted with anti-CD73 and anti-FGFR3 antibodies as described above. Membranes were developed with SuperSignal West Pico or Femto substrate and luminescence images were captured with a C300 imager (Azure Biosystems). Intensity of each CD73 and actin band was quantitated using Image J (NIH), and the ratio of CD73/actin for each sample were graphed using Prism Graphpad.

In assay [3] the target is T2, murine FGFR3b (mFGFR3b.mmH, REGN3215) (Mus musculus, UniProt Q61851).
T2 construct: REGN3215 (murine FGFR3b expressed with a C-terminal myc-myc-hexahistidine tag)
In words: Biacore SPR binding kinetics, monomeric murine FGFR3b to captured antibodies. To be noted: 25° C. Here is the method:
as §1, §2, §3

In assay [4] the test system is UMUC14 bladder cancer cells (endogenous FGFR3 S249C). In words: Cancer cell spheroid proliferation assay (CellTiter-Glo 3D). It is filed as cell-based. To be noted: 100 nM to 15.2 pM, 5-6 days, FIG. 4. Here is the method: 7500 UMUC14 bladder cancer cells were seeded in U-bottom low attachment 96-well spheroid plate (Corning) in culture medium (MEM medium with 10% FBS, 1% Non-Essential Amino Acids, Pen/Strep). Cells were cultured for 48 hours at 37° C. 5% CO2 to allow tumor spheroid formation. Tumor spheroids were treated with antibodies at concentration ranging from 100 nM to 15.2 pM with 1:3 serial dilution as indicated in the figure. Cells were cultured for 5-6 days, and then subjected to CellTiter-Glo 3D viability assays (Promega) following the manufacturer's protocol. Luminescence signal was read on SpectraMax M3 plate reader. Cell proliferation was expressed as percentages of untreated controls. Data were analyzed using GrasphPad Prism software using three parameter nonlinear curve fit.
A general note: ATP-based viability assays read luminescence as a measure of living cells.

For assay [5], the system named is CD73 protein level in UMUC14 cells. Briefly: CD73 expression in UMUC14 cells in vitro, Western blot. It is filed as cell-based. Conditions: 1 nM, 10 nM, 100 nM, 48 hrs, FIG. 6. The method, then:
To investigate the effect of anti-FGFR3 antibody or tyrosine kinase inhibitor (AZD4547; commercially available) on CD73 expression, UMUC14 bladder cancer cells were seeded in 6 well tissue culture plate (Corning) in complete medium (MEM medium with 10% FBS, 1% Non-Essential Amino Acids, Pen/Strep) and cultured overnight at 37° C. 5% CO2. Cells were then treated with antibodies or inhibitors at indicated concentration (100 nM, 10 nM or 1 nM) for 48 hrs. Cells were washed with pre-chilled PBS and collected in lysis buffer containing protease and phosphatase inhibitors. Equal amount of cell lysates were analyzed by SDS-PAGE. Blots were blocked in 0.5% Tween 20 in Tris buffered saline (TBS) containing 5% non-fat dry milk followed by overnight incubation with anti-CD73 primary antibody (Cell Signaling Technology). After washing 3× with TBST and incubation with secondary antibody, membranes were developed with SuperSignal West Pico or Femto substrate and luminescence images were captured with a C300 imager (Azure Biosystems).
(In general: In western blotting, separated proteins are transferred to a membrane and probed.)

T2 sequence (Q61851 with tags, fused parts or gaps isoform Q61851-2): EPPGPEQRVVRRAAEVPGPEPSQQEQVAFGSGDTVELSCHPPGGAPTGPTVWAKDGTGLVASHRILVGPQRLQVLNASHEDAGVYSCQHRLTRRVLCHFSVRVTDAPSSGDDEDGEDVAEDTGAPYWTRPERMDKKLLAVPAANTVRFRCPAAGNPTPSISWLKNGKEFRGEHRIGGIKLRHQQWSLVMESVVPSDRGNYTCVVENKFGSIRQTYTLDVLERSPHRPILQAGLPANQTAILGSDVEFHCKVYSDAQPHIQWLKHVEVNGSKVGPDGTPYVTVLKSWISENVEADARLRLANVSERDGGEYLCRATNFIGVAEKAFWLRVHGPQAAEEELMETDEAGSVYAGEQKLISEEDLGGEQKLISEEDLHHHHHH
T1 sequence (P22607 with tags, fused parts or gaps isoform P22607-2): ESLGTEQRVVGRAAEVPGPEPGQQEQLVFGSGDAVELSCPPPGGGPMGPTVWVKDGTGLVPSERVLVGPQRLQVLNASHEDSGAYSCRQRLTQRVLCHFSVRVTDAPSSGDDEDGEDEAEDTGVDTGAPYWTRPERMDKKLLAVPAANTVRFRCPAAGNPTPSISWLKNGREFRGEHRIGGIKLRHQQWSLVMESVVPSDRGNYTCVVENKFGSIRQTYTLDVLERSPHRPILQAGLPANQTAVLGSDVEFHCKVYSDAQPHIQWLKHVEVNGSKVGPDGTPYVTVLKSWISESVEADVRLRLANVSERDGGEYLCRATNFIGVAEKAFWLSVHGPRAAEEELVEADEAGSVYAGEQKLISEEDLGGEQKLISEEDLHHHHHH

B1: H4H30063P: anti-FGFR3 antibody, hIgG4^P; HCVR/LCVR SEQ ID NOs: 2 & 10; HC/LC SEQ ID NOs: 18 & 20 (antibody)
heavy: QVQLQESGPGLVKPSETLSLTCTVSGDSINSYFWSWIRQLPGKELEWIGHIYSSGSTRYNPSLQSRVTISIDTSKNQFSLKLSSVTAADTAVYYCARGASAVDYWGQGTLVTVSSASTKGPSVFPLAPCSRSTSESTAALGCLVKDYFPEPVTVSWNSGALTSGVHTFPAVLQSSGLYSLSSVVTVPSSSLGTKTYTCNVDHKPSNTKVDKRV[sequence of human IgG4 Fc with S228P (EU numbers) not given]
light: EIVLTQSPGTLSLSPGERATLSCRTSQSISSGYLAWYQQKPGQAPRLLIYGASRRATGIPDRFSGSGSGTDFTLTISRLEPEDFVVYYCQQYGSSPYTFGQGTKLEIKRTVAAPSVFIFPPSDEQLKSGTASVVCLLNNFYPREAKVQWKVDNALQSGNSQESVTEQDSKDSTYSLSSTLTLSKADYEKHKVYACEVTHQGLSSPVTKSFNRGEC
With B1, the “ka” value in assay [1] was 172000 M⁻¹ s⁻¹; in assay [3], 204000 M⁻¹ s⁻¹. Also, the “kd” value in assay [1] is 3.83e-05 s⁻¹; in assay [3], 2.78e-05 s⁻¹. For the same molecule, the “CD73 protein level in UMUC14 cells in vivo (in words)” value in assay [2] is “CD73 band intensity decreased”. The “inhibition of UMUC14 spheroid proliferation (in words)” value in assay [4] is “stronger inhibition of proliferation than antibody H4H30071P and comparator antibody REGN6331”. Also, the “CD73 expression in UMUC14 cells in vitro (in words)” value in assay [5] is “dose dependent downregulation of CD73 expression”.
